{"source": "the RNAGym collection of RNA variant scans (doi:10.7554/elife.90254)", "parents": {"B1": {"name": "LINE1-full (parent)", "chain": "UACGUAGGUGGUUUUCCCCUGAUAGUGCUAAGGGGGCCUGGAAGUUUGGACUGGGCAGAGCUCAACACAGCGUGGCAAAGUGGCUGUGGCUAGACUGCCUCUCUGGAUUCCUCGUCACUCAGCAGGGCAUCUCUGAGAGAAAUGCC"}}, "note": "The source gives no read counts; variants with many changes may rest on few reads.", "data": [{"variants_of": "B1", "experiment": "self-cleavage, relative activity (ratio to wild type); higher = more cleavage; in vitro, sequencing; the parent is a self-cleaving ribozyme", "values": [{"variant": "A59U U96A G125A", "self-cleavage": 0.03}, {"variant": "C61U A79U U81C U104C", "self-cleavage": 0.02}, {"variant": "C63U A67G U108C U130C", "self-cleavage": 0.37}, {"variant": "A65G A94U U108A", "self-cleavage": 0.04}, {"variant": "U62C C111U U119C", "self-cleavage": 0.07}, {"variant": "A65U C71G A117G U130C A141U", "self-cleavage": 0.2}, {"variant": "A65G U87C A92G", "self-cleavage": 0}, {"variant": "A65G U96C U119C G137A", "self-cleavage": 0.18}, {"variant": "A65U U96A A121G", "self-cleavage": 0.02}, {"variant": "A64G A107G U130G", "self-cleavage": 0.38}, {"variant": "U62C U85A A94G", "self-cleavage": 0}, {"variant": "U62C U81A U130C", "self-cleavage": 0.07}, {"variant": "A64G G88U U115C", "self-cleavage": 0}, {"variant": "G60A A79U U109C U112C U143C", "self-cleavage": 0.01}, {"variant": "U62A A69G U130C", "self-cleavage": 0}, {"variant": "A65G U87A A107G", "self-cleavage": 0.06}, {"variant": "C63A A140G A141G", "self-cleavage": 0.03}, {"variant": "A59U U100C U119C", "self-cleavage": 1.65}, {"variant": "U62A C66A A78U C90U U102C A124U", "self-cleavage": 0.04}, {"variant": "A64U A77U A79G U81C", "self-cleavage": 0.12}, {"variant": "A64U A69G A78G U134C", "self-cleavage": 0.09}, {"variant": "A65G C120U A121G", "self-cleavage": 0}, {"variant": "U62C U87C U109A", "self-cleavage": 0}, {"variant": "A65G A67G U96A", "self-cleavage": 0}, {"variant": "C63U A79G U143A", "self-cleavage": 0.26}, {"variant": "A64G U85A U91C", "self-cleavage": 0.44}, {"variant": "A65G A124G G125U", "self-cleavage": 0}, {"variant": "A65G A77U A138U", "self-cleavage": 0.17}, {"variant": "A64U A129G U132C", "self-cleavage": 0.69}, {"variant": "U62C U96C A138G", "self-cleavage": 0.09}, {"variant": "A64U C84U U134A A141G", "self-cleavage": 0.11}, {"variant": "A65G C71U A107G A142G", "self-cleavage": 0.01}, {"variant": "A65C C99U U143A", "self-cleavage": 0.04}, {"variant": "U62A U73A G74A A140G", "self-cleavage": 0.1}, {"variant": "U62C U73C A136G", "self-cleavage": 0}, {"variant": "A65G U109A A141G", "self-cleavage": 0.11}, {"variant": "C61G A69U C145U", "self-cleavage": 0.03}, {"variant": "A65U U102C U143C", "self-cleavage": 0.25}, {"variant": "A64U A77G U108C A138G", "self-cleavage": 0.99}, {"variant": "A65G A129G A142G", "self-cleavage": 0}, {"variant": "U62C U130C A142G", "self-cleavage": 0.08}, {"variant": "A64G G88A U109A", "self-cleavage": 0.08}, {"variant": "U62G G72A A141G", "self-cleavage": 0.05}, {"variant": "U62C G89A U130C", "self-cleavage": 0}, {"variant": "A64G G88A U119C", "self-cleavage": 0.06}, {"variant": "A64U A67U U81A", "self-cleavage": 0.04}, {"variant": "A65U C99U A138G", "self-cleavage": 0.2}, {"variant": "A64G A69G C113U", "self-cleavage": 0.21}, {"variant": "U62A U109A U143C", "self-cleavage": 0.05}, {"variant": "A64U U96C C128G", "self-cleavage": 0.03}, {"variant": "A64G U104A A124G", "self-cleavage": 0.2}, {"variant": "A64G A77G U108C", "self-cleavage": 0.59}, {"variant": "U62C U73C C123U", "self-cleavage": 0.05}, {"variant": "C61G U81A U104C A136U", "self-cleavage": 0}, {"variant": "A65G A138G A141G", "self-cleavage": 0}, {"variant": "A59U C133U A136G", "self-cleavage": 0.83}, {"variant": "A64G C103U A124G", "self-cleavage": 0.3}, {"variant": "A64G U73A C131U", "self-cleavage": 0.25}, {"variant": "U62C U115A U130C", "self-cleavage": 0.04}, {"variant": "C61A A69G A79G U130C", "self-cleavage": 0}, {"variant": "C63U U115C A121G A136U", "self-cleavage": 0.77}, {"variant": "A59U A79G U143A", "self-cleavage": 0.77}, {"variant": "U62C A64G U87C", "self-cleavage": 0}, {"variant": "U62C A94G A141G", "self-cleavage": 0}, {"variant": "A64G A78U U87C", "self-cleavage": 0.21}, {"variant": "A65U U102C U119C A121C", "self-cleavage": 0}, {"variant": "A59U U62C A69G A78G", "self-cleavage": 0.26}, {"variant": "U62A G83U U119C", "self-cleavage": 0.03}, {"variant": "U62C U96G U130C A142G", "self-cleavage": 0}, {"variant": "A64G U115C A140U", "self-cleavage": 0.27}, {"variant": "U62C C84U U96A A141G", "self-cleavage": 0.02}, {"variant": "A64U A142G U143C", "self-cleavage": 0.6}, {"variant": "A65U A94G U143C", "self-cleavage": 0.03}, {"variant": "U62A U119A G137A", "self-cleavage": 0}, {"variant": "U62C U130C U132A", "self-cleavage": 0.05}, {"variant": "G60A U87C A136G A140G", "self-cleavage": 0.08}, {"variant": "U62C A94G A107U", "self-cleavage": 0}, {"variant": "A64G U85A G89A A117G", "self-cleavage": 0.06}, {"variant": "A65G U112C U130C", "self-cleavage": 0.15}, {"variant": "U62C A69U U81C", "self-cleavage": 0.04}, {"variant": "U62C A107G U112C", "self-cleavage": 0.19}, {"variant": "U62C U73A U96A", "self-cleavage": 0.11}, {"variant": "U62A U73C U100C C113U", "self-cleavage": 0.04}]}]}
